Measured values published in paper PMC6919601, “Identification of Plasmodium dipeptidyl aminopeptidase allosteric inhibitors by high throughput screening” (PLoS ONE, 2019).
Values joined by “and” are separate entries in the source; they are usually repeats but may differ in a detail not shown here. Equal values may be shown once. In all, about 110,000 compounds went through this assay and about 230 (0.21%) showed an effect of 50% or more. The list shows a part of the results.

Target: DPAP1 (Plasmodium falciparum, UniProt Q8IIJ9)
Sequence (Q8IIJ9 whole entry, looked up): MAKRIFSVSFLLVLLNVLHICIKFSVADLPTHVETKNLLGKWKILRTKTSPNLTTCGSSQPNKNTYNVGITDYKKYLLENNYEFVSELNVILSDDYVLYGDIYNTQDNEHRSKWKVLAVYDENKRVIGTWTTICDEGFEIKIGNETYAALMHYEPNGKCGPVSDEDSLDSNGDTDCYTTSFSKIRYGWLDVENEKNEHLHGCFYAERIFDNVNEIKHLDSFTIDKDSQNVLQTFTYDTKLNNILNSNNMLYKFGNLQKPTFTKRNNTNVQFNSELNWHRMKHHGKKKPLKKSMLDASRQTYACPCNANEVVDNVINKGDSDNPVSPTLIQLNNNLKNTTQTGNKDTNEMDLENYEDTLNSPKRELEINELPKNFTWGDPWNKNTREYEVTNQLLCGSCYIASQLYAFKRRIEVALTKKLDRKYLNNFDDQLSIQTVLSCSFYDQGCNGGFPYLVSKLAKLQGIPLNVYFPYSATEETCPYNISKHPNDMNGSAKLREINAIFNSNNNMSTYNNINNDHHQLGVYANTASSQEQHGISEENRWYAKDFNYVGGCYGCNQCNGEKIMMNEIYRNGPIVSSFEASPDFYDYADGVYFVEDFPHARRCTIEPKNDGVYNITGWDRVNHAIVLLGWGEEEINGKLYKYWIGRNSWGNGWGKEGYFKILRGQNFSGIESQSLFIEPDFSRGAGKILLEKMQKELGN
Assay: primary screen, percent inhibition; read by cleavage of a fluorogenic dipeptide substrate; higher = more effect of the substance
Design: species or system P. falciparum D10 trophozoite lysates; single well
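Note: 30 min substrate incubation versus DMSO and 10 µM JCP410 controls.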

SMILES	% Inhibition @ 10 uM
c1ccc(-c2ccc(-c3cn4ccccc4n3)cc2)cc1	4.41%
Cc1csc2nc(CNS(=O)(=O)c3ccc4c(c3)CCCC4)cn12	0.953%
COc1cc(C)c(CN2CCN(CCO)CC2)cc1C	-0.856%
CCc1cccc(NC(=O)Nc2ccc(C)cc2)c1	2.13%
CC1CCN(c2nnc(-n3cccc3CN3CCN(C)CC3)s2)CC1	-3.47%
O=C(O)c1cnn2c(C(F)(F)F)cc(-c3ccc(Br)cc3)nc12	5.39%
CCOc1ccc(C(=O)NCCCCc2ccccc2)cc1	-0.999%
OC(CCCN1CCC(O)(c2ccc(Cl)cc2)CC1)c1ccc(Cl)cc1 (stereo not shown)	-4.63%
CCOc1ccc(Nc2cc(O)nc(O)n2)cc1	3.44%
CC1(C)CC(=O)C2=C(C1)N(Cc1cccnc1)C(=O)C2(NC(=O)C1CC1)C(F)(F)F (stereo not shown)	1.91%
O=C(c1cc2c(s1)-c1ccccc1OC2)N(Cc1ccco1)C1CCCC1	-4.85%
CC(C)N(C(=O)CCCOc1ccc(Cl)cc1Cl)C(C)C	-8.76%
CCOc1ccc(-c2nc(CSCC(=O)N3CCC(N4CCCCC4)CC3)c(C)o2)cc1	-5.03%
CCOc1ccc(CNC(=O)CN(C)S(=O)(=O)c2ccc3[nH]c4c(c3c2)CCCC4)cc1OC	9.46%
COc1ccc(-c2onc(C)c2C)cc1S(=O)(=O)N(C)C(C)CCc1ccco1 (stereo not shown)	-1.23%
CCOC(=O)c1cnc2ccc(OC)cc2c1NC1CCCCC1	-1.25%
COc1ccc2c(c1)C(C)=CC(C)(C)N2	1.13% and -5.94%
CC(NC(=O)Cn1ncc2c3ccccc3n(Cc3ccccc3F)c2c1=O)c1ccccc1 (stereo not shown)	1.8%
CO/C(O)=C1\C(C)=NC2=C(C(=O)CC(c3ccccc3)C2)C1c1cc(Br)c(O)c(OC)c1 (stereo not shown)	2.45%
CC1=[N+]([O-])C(C)(C)CC(C)(C)c2ccccc21	3.16%
Cc1[nH]nc(NC(=O)c2ccccn2)c1Br	-5.03%
COc1ccc(C(=O)N2CCN(Cc3ccc(Cl)cc3)CC2)cc1OC	-5.03%

SMILES	% Inhibition @ 10 uM
O=C(NCCc1ccccc1)C12CC3CC(CC(C3)C1)C2	-2.59%
O=C(c1ccco1)N(Cc1ccccc1)C(Cc1ccccc1)c1cccs1 (stereo not shown)	-2.91%
CCCCOc1ccc(C(=O)NC(CC(C)C)C(=O)NCC#N)cc1 (stereo not shown)	-3.04%
O=C(CCCN1C(=O)c2ccccc2Sc2ncccc21)N1CCCCCC1	0.436%
Cc1ccc(CNC(=O)Cn2ccc3cc(S(=O)(=O)N4CCC(C)CC4)ccc32)cc1	-0.717%
Cc1ccc(-c2cn3c(n2)sc2cc(C(=O)NCCN4CCCC4)ccc23)c(C)c1	9.08%
O=[N+]([O-])c1ccccc1CN1CCCCCC1	-5.41%
CN1CCC(N(C)C2CCN(Cc3ccccc3)CC2)CC1	0.162%
CCC1(C)Cc2c(sc3nc(SC)nc(O)c23)CO1 (stereo not shown)	8.9%
O=C(Cn1ccc2cc(S(=O)(=O)N3CCCC3)ccc21)NCc1ccccc1	-6.62%
CCOc1ccc(CCNC(=O)CSc2nc(C)c(Cl)c(C)c2C#N)cc1OCC	2.7%
COc1ccc(C2CC(c3ccccc3)=NN2c2ccc(N)cc2)cc1 (stereo not shown)	1.92%
Cn1nc(C(=O)NCCC2=CCCCC2)c2c1-c1ccccc1SC2	22.5%
CC(C)CCn1c(=O)c2ccccc2n2c(CCC(=O)NCC3CCCO3)nnc12 (stereo not shown)	3.54%
CCCCCCC(C(N)=O)C1=NC(C)(C)Cc2ccccc21 (stereo not shown)	-1.5%
Cc1ccc(C2Oc3ccccc3C3=C2C(c2cccs2)n2ncnc2N3)cc1 (stereo not shown)	-1.62%
COc1cc(-n2c(C)nc3cc(C(=O)NCc4cccnc4)ccc32)cc(OC)c1OC	0.992%
CCN(CC)S(=O)(=O)c1cc(C(=O)Nc2ccc(Br)cc2)ccc1Br	-0.294%
CCC(NS(=O)(=O)c1cccc2nsnc12)C12CC3CC(CC(C3)C1)C2 (stereo not shown)	-3.04%
Cc1ccc(NC(=O)c2ccoc2C)c(Br)c1	1.57%
NC(=O)C1CCCN(Cc2ccc(Cl)cc2)C1 (stereo not shown)	2.99%
CC(=O)N(C)c1ccc(NC(=O)c2ccc(C(C)(C)C)c(Br)c2)cc1	-1.49%

SMILES	% Inhibition @ 10 uM
CCn1c2ccccc2c2nnc(NCCOc3cccc(C(F)(F)F)c3)nc21	-3.1%
O=S(=O)(NC1CCCCC1)c1ccc(-c2ccccc2)cc1	-0.294%
O=C1Oc2ccccc2N/C1=C\C(=O)c1ccccc1	3.96%
COCCCNS(=O)(=O)c1csc(C(N)=O)c1	6.35%
COc1ccc(Cl)cc1C(=O)Nc1ccc(Cl)cc1C(=O)O	16.5%
CC12CC3CC(C1)CC(CC(=O)O)(C3)C2	-1.62%
CCOC(=O)C1=C(C)NC(=O)NC1c1ccc(C)cc1 (stereo not shown)	4.38%
CC(C)Oc1ccc(CNC(=O)c2ccc(CS(=O)c3ccc(Cl)cc3)o2)cc1 (stereo not shown)	0.951%
O=C(COc1cccc2ccccc12)Nc1cccc(O)c1	-1.82%
Cc1nn(C(C)C(=O)NC2CCCc3ccccc32)c(=O)c2c1sc1ccccc12 (stereo not shown)	-1.33%
CCc1ccc(CNC(=O)c2ccc(CN3CC(=O)N4CCCCC4C3=O)cc2)cc1 (stereo not shown)	1.97%
Cc1ccccc1C(=O)Nc1ccc(S(=O)(=O)N2CCCC2)cc1	-1.28%
COc1cccc(C(=O)N2CCN(Cc3ccccc3C(F)(F)F)CC2)c1	2.3%
Cc1ccc(CN(c2ccc(C(=O)N3CCN(C)CC3)cc2)S(C)(=O)=O)cc1	0.83%
C=CCn1c(=N)c(C#N)cc2c(=O)n3ccccc3nc21	1.35%
CCCOc1ccc(/C=C2\SC(N3CCOCC3)=NC2=O)cc1	-13.1%
Cc1cc(C)c(S(=O)(=O)NC2CC(C)(C)NC(C)(C)C2)cc1Br	-3.25%
CC(=O)c1cccc(NC(=O)COc2ccc(S(=O)(=O)NC3CCCCC3)cc2)c1	-11.7%
COc1cc2c(C(=O)c3ccc(Cl)cc3)c(C)oc2c2ccccc12	-3.71%
Cc1ccc(C2(O)C[N+](c3cc(C)ccc3C)=C3CCCCN32)cc1 (stereo not shown)	-1.12%
